The record followed here is PubChem BioAssay (NCI).

This assay has as its system NCI-H322M lung. Nature of the assay: DTP human tumour cell line panel, 48 h.

For orientation: GI50 means the concentration that inhibits growth by half. As a reminder, the TGI is the concentration at which net growth stops. Low readings indicate more potent growth arrest, high ones less potent growth arrest.

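Where inhibition never reached the appropriate level, the endpoint shown equals the highest concentration tested. Otherwise, values were interpolated linearly from a five-concentration, 48-hour dose response in 96-well plates. GI50 = concentration required for 50% inhibition of growth. TGI is the concentration that stops growth completely.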

For the molecule `O=C(NCCCNc1cc(-c2cn(-c3ccccc3)nc2-c2cccc(O)c2)ccn1)Nc1cccc(C(F)(F)F)c1`, the GI50 is 4.24 µM and the TGI turned out to be 9.32 µM.
